# Measured values published in the supplement of paper PMC8728848.
# This is one part of the list.
# B1: BC2L-D C-terminal domain (Burkholderia cenocepacia), Q39MQ9_BURS3 (protein)
# chain: LVIVDAVTLLSAYPEASRDPAAPTVIDGRHLYVVSPGDAAQLGHNDSRLFTGLSPGDQLHLRETALALRAEVSVLFIRFALKDAGIVAPIELEVRDAATAVPDADDLLHPSCRPLKDHYWRSDVLAAGATTCTADFAVCDRDGTVSGYFRWETSIEIAGSQPDTKQPGFKPSSDRNGNFSLPPNTAFKAIFYANAADRQDLKLFIDDAPEPAATFVGNSEDGVRLFTLNSKGGKIRIEASANGRQSATDARLAPLSAGDTVWLGWLGAEDGADADYNDGIVILQWPIT
# Columns and labels:
# Assay in all cases: glycan array binding signal (z-score within array); higher = stronger binding
# Conditions in all cases: glycan notation: IUPAC condensed, linker removed
# [1] = molecular target: GlcNAc(b1-3)Gal(b1-4)GlcNAc
# Procedure, shortened: (§1)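 The binding signal is a Z-score computed within each array and averaged over linkers. Arrays of the same protein sequence at different concentrations or buffers were also averaged together. Data originate from 3228 arrays in the Consortium for Functional Glycomics database, kept only where the protein sequence was available.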
# [2] = molecular target: GlcNAc(b1-3)Gal(b1-4)GlcNAc(b1-3)Gal(b1-4)GlcNAc
# Procedure, shortened: as §1
# GlcNAc(b1-3)GalNAc = molecular target: GlcNAc(b1-3)GalNAc
# Procedure, shortened: as §1
# GlcNAc(b1-3)Man = molecular target: GlcNAc(b1-3)Man
# Procedure, shortened: as §1
# [3] = molecular target: GlcNAc(b1-3)[GlcNAc(b1-4)][GlcNAc(b1-6)]GlcNAc
# Procedure, shortened: as §1
# [4] = molecular target: GlcNAc(b1-3)[GlcNAc(b1-6)]Gal(b1-4)GlcNAc
# Procedure, shortened: as §1
# [5] = molecular target: GlcNAc(b1-3)[GlcNAc(b1-6)]GalNAc
# Procedure, shortened: as §1
# [6] = molecular target: GlcNAc(b1-4)Gal(b1-4)GlcNAc
# Procedure, shortened: as §1
# GlcNAc(b1-4)GlcNAc = molecular target: GlcNAc(b1-4)GlcNAc
# Procedure, shortened: as §1
# [7] = molecular target: GlcNAc(b1-4)GlcNAc(b1-4)GlcNAc
# Procedure, shortened: as §1
# [8] = molecular target: GlcNAc(b1-4)GlcNAc(b1-4)GlcNAc(b1-4)GlcNAc(b1-4)GlcNAc
# Procedure, shortened: as §1
# [9] = molecular target: GlcNAc(b1-4)GlcNAc(b1-4)GlcNAc(b1-4)GlcNAc(b1-4)GlcNAc(b1-4)GlcNAc
# Procedure, shortened: as §1
# [10] = molecular target: GlcNAc(b1-4)[GlcNAc(b1-6)]GalNAc
# Procedure, shortened: as §1
# [11] = molecular target: GlcNAc(b1-6)Gal(b1-4)GlcNAc
# Procedure, shortened: as §1
# GlcNAc(b1-6)GalNAc = molecular target: GlcNAc(b1-6)GalNAc
# Procedure, shortened: as §1
# GlcNAc3Prop(b1-4)GlcNAc = molecular target: GlcNAc3Prop(b1-4)GlcNAc
# Procedure, shortened: as §1
# [12] = molecular target: GlcNAc6S(b1-3)Gal(b1-4)GlcNAc
# Procedure, shortened: as §1
# Kdn(a2-3)Gal(b1-3)GalNAc = molecular target: Kdn(a2-3)Gal(b1-3)GalNAc
# Procedure, shortened: as §1
# Kdn(a2-3)Gal(b1-3)GlcNAc = molecular target: Kdn(a2-3)Gal(b1-3)GlcNAc
# Procedure, shortened: as §1
# Kdn(a2-3)Gal(b1-4)Glc = molecular target: Kdn(a2-3)Gal(b1-4)Glc
# Procedure, shortened: as §1
# Kdn(a2-3)Gal(b1-4)GlcNAc = molecular target: Kdn(a2-3)Gal(b1-4)GlcNAc
# Procedure, shortened: as §1
# [13] = molecular target: Kdn(a2-3)Gal(b1-4)[Fuc(a1-3)]GlcNAc
# Procedure, shortened: as §1
# Kdn(a2-6)Gal(b1-4)GlcNAc = molecular target: Kdn(a2-6)Gal(b1-4)GlcNAc
# Procedure, shortened: as §1
# [14] = molecular target: Man(a1-2)Man(a1-2)Man(a1-3)Man
# Procedure, shortened: as §1
# [15] = molecular target: Man(a1-2)Man(a1-2)Man(a1-6)[Man(a1-3)]Man
# Procedure, shortened: as §1
# Man(a1-2)Man(a1-3)Man = molecular target: Man(a1-2)Man(a1-3)Man
# Procedure, shortened: as §1
# [16] = molecular target: Man(a1-2)Man(a1-3)[Man(a1-2)Man(a1-6)]Man
# Procedure, shortened: as §1
# [17] = molecular target: Man(a1-2)Man(a1-3)[Man(a1-2)Man(a1-6)]Man(a1-6)[Man(a1-2)Man(a1-2)Man(a1-3)]Man
# Procedure, shortened: as §1
# [18] = molecular target: Man(a1-2)Man(a1-3)[Man(a1-2)Man(a1-6)]Man(a1-6)[Man(a1-2)Man(a1-2)Man(a1-3)]Man(b1-4)GlcNAc(b1-4)GlcNAc
# Procedure, shortened: as §1
# [19] = molecular target: Man(a1-2)Man(a1-3)[Man(a1-6)]Man(a1-6)[Man(a1-2)Man(a1-3)]Man(b1-4)GlcNAc(b1-4)GlcNAc
# Procedure, shortened: as §1
# [20] = molecular target: Man(a1-2)Man(a1-6)[Man(a1-3)]Man(a1-6)[Man(a1-2)Man(a1-2)Man(a1-3)]Man
# Procedure, shortened: as §1
# [21] = molecular target: Man(a1-2)Man(a1-6)[Man(a1-3)]Man(a1-6)[Man(a1-2)Man(a1-2)Man(a1-3)]Man(b1-4)GlcNAc(b1-4)GlcNAc
# Procedure, shortened: as §1
# Man(a1-3)[Man(a1-6)]Man = molecular target: Man(a1-3)[Man(a1-6)]Man
# Procedure, shortened: as §1
# [22] = molecular target: Man(a1-3)[Man(a1-6)]Man(a1-6)[Man(a1-2)Man(a1-3)]Man(b1-4)GlcNAc(b1-4)GlcNAc
# Procedure, shortened: as §1
# [23] = molecular target: Man(a1-3)[Man(a1-6)]Man(a1-6)[Man(a1-3)]Man
# Procedure, shortened: as §1
# [24] = molecular target: Man(a1-3)[Man(a1-6)]Man(a1-6)[Man(a1-3)]Man(b1-4)GlcNAc(b1-4)GlcNAc
# Procedure, shortened: as §1
# [25] = molecular target: Man(a1-3)[Man(a1-6)]Man(b1-4)GlcNAc(b1-4)GlcNAc
# Procedure, shortened: as §1
# Man(a1-6)Man = molecular target: Man(a1-6)Man
# Procedure, shortened: as §1
binder,measurement,setting,value
B1,glycan array binding signal (z-score),[1],-0.241
same,glycan array binding signal (z-score),[2],-0.244
same,glycan array binding signal (z-score),GlcNAc(b1-3)GalNAc,-0.201
same,glycan array binding signal (z-score),GlcNAc(b1-3)Man,-0.243
same,glycan array binding signal (z-score),[3],-0.242
same,glycan array binding signal (z-score),[4],-0.243
same,glycan array binding signal (z-score),[5],-0.206
same,glycan array binding signal (z-score),[6],-0.239
same,glycan array binding signal (z-score),GlcNAc(b1-4)GlcNAc,-0.241
same,glycan array binding signal (z-score),[7],-0.247
same,glycan array binding signal (z-score),[8],-0.244
same,glycan array binding signal (z-score),[9],-0.241
same,glycan array binding signal (z-score),[10],-0.24
same,glycan array binding signal (z-score),[11],-0.242
same,glycan array binding signal (z-score),GlcNAc(b1-6)GalNAc,-0.206
same,glycan array binding signal (z-score),GlcNAc3Prop(b1-4)GlcNAc,-0.238
same,glycan array binding signal (z-score),[12],-0.241
same,glycan array binding signal (z-score),Kdn(a2-3)Gal(b1-3)GalNAc,-0.233
same,glycan array binding signal (z-score),Kdn(a2-3)Gal(b1-3)GlcNAc,-0.242
same,glycan array binding signal (z-score),Kdn(a2-3)Gal(b1-4)Glc,-0.246
same,glycan array binding signal (z-score),Kdn(a2-3)Gal(b1-4)GlcNAc,-0.244
same,glycan array binding signal (z-score),[13],-0.246
same,glycan array binding signal (z-score),Kdn(a2-6)Gal(b1-4)GlcNAc,-0.244
same,glycan array binding signal (z-score),[14],1.67
same,glycan array binding signal (z-score),[15],5.14
same,glycan array binding signal (z-score),Man(a1-2)Man(a1-3)Man,0.519
same,glycan array binding signal (z-score),[16],1.2
same,glycan array binding signal (z-score),[17],4.23
same,glycan array binding signal (z-score),[18],1.52
same,glycan array binding signal (z-score),[19],2.66
same,glycan array binding signal (z-score),[20],5.62
same,glycan array binding signal (z-score),[21],6.24
same,glycan array binding signal (z-score),Man(a1-3)[Man(a1-6)]Man,4.31
same,glycan array binding signal (z-score),[22],6.86
same,glycan array binding signal (z-score),[23],5.02
same,glycan array binding signal (z-score),[24],3.67
same,glycan array binding signal (z-score),[25],3.32
same,glycan array binding signal (z-score),Man(a1-6)Man,-0.061
